PubChem BioAssay AID463173 (ICCB-Longwood Screening Facility, Harvard Medical School, 2010)
Hit rate of the full screen: of about 52,000 compounds, about 4,300 (8.3%) were called active. Cut-off read from the data, not from the text of the source: active = survival mostly below about 52% (no sharp cut-off); inactive = mostly above about 56%. This is one part of the list.

The compounds below were run on DeltatarO mutant (assay: S. aureus survival, RN4220 and DeltatarO strains – OD600, teichoic acid synthesis inhibitors, primary screen (AID 463173)). Conditions: S. aureus RN4220 wild type/DeltatarO growth, OD600, 18 h, hits give low values, screened at 18.75 µg/mL (by protocol).
In the case of `CCOc1ccc(Nc2ncnc3c2nc2n3CCCC2)cc1`, the survival was inactive: 83%. In the case of `CCOC(=O)c1c(C)[nH]c(C)c1S(=O)(=O)N1CCCC(C(=O)Nc2ccc(C)cn2)C1` (stereo not given), the survival was inactive: 74%. In the case of `CCc1ccccc1Nc1nn2c(=O)c3ccc(C(=O)NCc4ccccc4OC)cc3nc2s1`, the survival was inactive: 73%. In the case of `CCN(c1ccccc1)c1ccc2cc(S(=O)(=O)N3CCCC3)ccc2n1`, the survival was inactive: 95%. With `Cc1ccc(-n2nc(CO)c(C(=O)NCCCc3ccccc3)n2)cc1C` the survival was inactive: 115%. With `COc1ccccc1Cn1cc(C(=O)c2ccc(C)cc2)c(=O)c2cc(C)ccc21` the survival was inactive: 112%. For `CCCn1c(SCC(=O)N2CCCc3ccccc32)nnc1C(C)C`, the survival was inactive: 98%. With `c1ccc(CN2CCC(N3CCN(C4CCCCC4)CC3)CC2)cc1` the survival was inactive: 67%. In the case of `COc1ccccc1CCNC(=O)C1CCN(c2nnc(-n3cccc3CNc3ccc(C)cc3)s2)CC1`, the survival was inactive: 80%. With `COc1ccc(N2CCN(c3csc4ccc(Cl)cc4c3=O)CC2)cc1` the survival was inactive: 90%. In the case of `N/C(=N\c1nc2ccccc2o1)NC(=O)/C=C/c1ccco1`, the survival was inactive: 85%. For `COc1ccc(Cl)cc1NC(=O)c1cn(C2CCCCC2)c(=O)c2c1c1ccccc1n2C`, the survival was inactive: 79%. `CCOc1ccc(Nc2nc3cc(Cl)c(Cl)cc3nc2-n2nc(C)cc2C)cc1` was tested, and the survival was inactive: 87%. `Cc1c(C(=O)N(Cc2ccc(N(C)C)cc2)CC2CCCO2)oc2ccc(Cl)cc12` (stereo not given) was tested, and the survival was inactive: 72%. For `CC(C)C(=O)Nc1ccccc1OCc1cc(=O)n2ccccc2n1`, the survival was inactive: 115%. With `CCOc1ccc(NC(=O)C2CCCN(c3ccc(Sc4ccc(C)cc4)nn3)C2)cc1` (stereo not given) the survival was inactive: 90%. In the case of `O=C(NC(=O)c1ccccc1)Nc1ccc(-c2cc(C(F)(F)F)nn2-c2ccccc2)cc1`, the survival was inactive: 83%. With `COC(=O)C(CCSC)NC(=O)c1cc2c(n(-c3ccc(Cl)cc3)c1=O)CCCC2=O` (stereo not given) the survival was inactive: 73%. `N#CCCn1c(=O)[nH]c(=O)n(CCC#N)c1=O` was tested, and the survival was inactive: 74%. In the case of `CCC(Oc1ccccc1F)C(=O)N1CCC(c2nc3ccccc3s2)CC1` (stereo not given), the survival was active: 2%. In the case of `COc1ccc(Cl)cc1NC(=O)C1CCCN(c2ncnc3onc(C)c23)C1` (stereo not given), the survival was inactive: 120%. In the case of `CCOc1ccccc1CNC(=O)c1c(C)oc2ncnc(N3CCOCC3)c12`, the survival was inactive: 94%. For `CCOc1ccc(NC(=O)CSc2ccc(-c3sc(-c4ccccc4)nc3C)nn2)cc1`, the survival was active: 15%. For `CCOc1ccc2nc(Cl)c(C3CC(c4ccc(OC)cc4)=NN3S(C)(=O)=O)cc2c1` (stereo not given), the survival was inactive: 127%. With `Cc1ccccc1C(=O)NC1(C(F)(F)F)N=C(c2ccccc2)N(C2CCCCC2)C1=O` (stereo not given) the survival was inactive: 86%. `NC(=O)CN(c1ccccc1)C1SC(=O)NC1=O` (stereo not given) was tested, and the survival was inactive: 76%. In the case of `Cc1cccc(NC(=O)c2ccc3snnc3c2)c1C`, the survival was inactive: 102%. For `O=c1c2cc3c(cc2n(Cc2ccc(F)cc2)c(=O)n1Cc1nc(-c2ccccc2)no1)OCO3`, the survival was inactive: 83%. For `Cc1cccc(NC(=O)c2cc3c(=O)n4cccc(C)c4nc3s2)c1C`, the survival was inactive: 65%. With `CC(C)CN(CCCNC(=O)CN1N=C(c2ccc(Cl)cc2)CCC1=O)CC(C)C` the survival was inactive: 60%. In the case of `CCCn1c(CNC(=O)c2ccc(F)cc2)nc2ccccc21`, the survival was inactive: 76%. `Cc1ccc2oc(-c3ccc(C)c(NC(=O)c4ccc(N5CCC(C)CC5)c([N+](=O)[O-])c4)c3)nc2c1` was tested, and the survival was inactive: 135%. `CNS(=O)(=O)c1cn(CC(=O)N2CCN(c3cccc(C)c3C)CC2)cc1S(=O)(=O)NC` was tested, and the survival was inactive: 69%. With `Cc1ccc(S(=O)(=O)N(Cc2nc(-c3cccc(C)c3)no2)C2CCCCC2)cc1` the survival was active: 46%. For `O=c1cc(-c2ccccc2)nc(SCc2nc(-c3ccc(Cl)cc3)no2)[nH]1`, the survival was inactive: 69%. With `O=C(COCc1cc(-c2ccc3c(c2)OCO3)on1)N1CCN(c2cccc(Cl)c2)CC1` the survival was inactive: 63%. In the case of `COc1ccc2nc(NS(=O)(=O)Cc3ccccc3)sc2c1`, the survival was inactive: 75%. With `O=C1CC2CCC(CN1)N2CC(=O)Nc1ccc(F)cc1` (stereo not given) the survival was inactive: 99%. In the case of `Clc1ccc2c(c1)NC(c1ccncc1)=NC(c1cccs1)=N2`, the survival was inactive: 76%. For `COc1ccc2c(c1)CCc1c(C(=O)Nc3c(C)nn(Cc4ccccc4C)c3C)noc1-2`, the survival was inactive: 32%. In the case of `CCOc1ccccc1NC(=O)C(CC(C)C)NS(=O)(=O)c1ccc2c(c1)oc(=O)n2C` (stereo not given), the survival was inactive: 131%. In the case of `COc1cc(CNC(=O)c2ccc3nc(CCc4ccccc4)oc3c2)cc(OC)c1OC`, the survival was inactive: 80%. `COC(=O)c1c(SC)nc2ccccc2c1OCc1ccc(Cl)cc1` was tested, and the survival was inactive: 92%. With `CN(C)c1ccc(-c2nc(-c3ccco3)no2)cc1[N+](=O)[O-]` the survival was inactive: 52%. In the case of `Cc1ccc(Cl)cc1-n1ncc2c(NCCCc3ccccc3)ncnc21`, the survival was inactive: 118%. `Cc1c(Nc2nc3ccccc3n3c(C)nnc23)cccc1C(=O)O` was tested, and the survival was inactive: 90%. With `CCN(CC)S(=O)(=O)c1ccc2c(c1)N(CC(=O)N1CCN(c3cccc(OC)c3)CC1)C(=O)CO2` the survival was inactive: 67%. For `CCc1ccc(NC(=O)c2ccc(F)c(S(=O)(=O)NCc3ccc(Cl)c(Cl)c3)c2)cc1`, the survival was inactive: 109%. `O=c1[nH]ncc(NCc2ccc(Cl)cc2)c1Cl` was tested, and the survival was inactive: 93%. In the case of `CCc1nonc1NC(=O)c1oc2ccc(C)cc2c1C`, the survival was inactive: 75%. In the case of `COc1ccc(-c2cc(-c3ccc4c(c3)NC(=O)CO4)nc3c2COc2ccc(F)cc2-3)cc1`, the survival was inactive: 79%. With `CCOc1ccc(N2C(=O)c3n[nH]c(-c4cccs4)c3C2c2cccc(F)c2)cc1` (stereo not given) the survival was inactive: 45%. In the case of `CCc1cccc(C)c1NC(=O)CCn1c(=O)c2cccn2c2ccccc21`, the survival was inactive: 58%. In the case of `CC(C)C(=O)NCC1(N(C)C)CCCCC1`, the survival was inactive: 85%. With `Cc1cc(N2CCN(c3cccc(C(F)(F)F)c3)CC2)n2nc(-c3ccccc3)nc2n1` the survival was active: 41%. For `CCOc1ccc(C(=O)Nc2c(C(=O)N3CCN(c4ccccc4F)CC3)oc3ccccc23)cc1`, the survival was inactive: 83%. `Cc1ccc(NS(=O)(=O)c2cc3[nH]c(=O)c(=O)[nH]c3cc2C)cc1Cl` was tested, and the survival was inactive: 73%. For `Cc1ccc(NC(=O)N2CC3CCCN3c3ccccc32)c(C)c1` (stereo not given), the survival was inactive: 86%. `Fc1ccc(-n2ncc3c(N4CCCCCC4)ncnc32)cc1` was tested, and the survival was inactive: 71%. `Cc1ccc(-c2cc(C(=O)N(Cc3ccc(C(C)(C)C)cc3)Cc3ccco3)no2)cc1` was tested, and the survival was inactive: 113%. `COc1ccc(NC(=O)c2ccco2)cc1NC(=O)COc1ccc(Cl)c(C)c1` was tested, and the survival was inactive: 71%. In the case of `Cc1ccc2nc(-c3ccc(Cl)c(NC(=O)COc4ccc(C(C)C)cc4)c3)oc2c1`, the survival was active: 42%. In the case of `CC1(C)CC(=O)C(Sc2nnc(-c3ccc(O)cc3)n2CC2CCCO2)C(=O)C1` (stereo not given), the survival was inactive: 63%. In the case of `COc1ccc(NC(=O)CCc2nnc3n(Cc4ccccc4Cl)c(=O)c4ccccc4n23)cc1`, the survival was inactive: 93%. `CC1CCCCN1C(=O)C1CCN(S(=O)(=O)c2ccc(-n3cnnn3)cc2)CC1` (stereo not given) was tested, and the survival was inactive: 87%. For `Cc1ccc(C)c(NC(=O)C2CCCN(S(=O)(=O)c3cn(C)cn3)C2)c1` (stereo not given), the survival was inactive: 103%. For `Cc1ccc(N2C(=O)N(Cc3cc(=O)n4ccccc4n3)c3ccccc3S2(=O)=O)cc1Cl`, the survival was inactive: 83%. In the case of `CCOc1ccccc1CNC(=O)Cn1cc2c(n1)-c1c(oc(C(=O)N3CCCC3)c1C)CC2`, the survival was inactive: 75%. For `Cc1ccc(S(=O)(=O)CCSC(=N)N)cc1`, the survival was inactive: 96%. For `CCn1cc(C(=O)N2CCN(c3cc(C)ccc3C)CC2)c(=O)c2cc(S(=O)(=O)N3CCCCC3)ccc21`, the survival was inactive: 82%. `COc1ccc(N2CCN(Cc3cccn3-c3nnc(N4CCN(C5CCCCC5)CC4)s3)CC2)cc1` was tested, and the survival was inactive: 67%. With `Cc1ccc([N+](=O)[O-])cc1S(=O)(=O)N1CCn2cccc2C1c1ccccc1` (stereo not given) the survival was inactive: 83%. In the case of `CCOc1ccc(-n2nc(CO)c(C(=O)NCc3cccs3)n2)cc1`, the survival was active: 40%. For `CC(Oc1ccc(Br)cc1)C(=O)Nc1ncn[nH]1` (stereo not given), the survival was inactive: 83%. For `COc1ccc(C(=O)Nc2ccccc2SCc2cc(=O)c3cccc(C)c3[nH]2)cc1`, the survival was inactive: 76%. In the case of `COC(=O)c1ccccc1NC(=O)C1=C(C)C(=O)OC12CCCCCC2`, the survival was inactive: 84%. `O=C(O)Cc1sc(Nc2ccccc2)nc1-c1ccccc1` was tested, and the survival was inactive: 67%. `COc1ccc(S(=O)(=O)NCCS(=O)(=O)N2CCN(c3ccccc3)CC2)cc1C` was tested, and the survival was inactive: 102%. For `Cc1ccc(S(=O)(=O)N2CCN(Cc3nc4ccc(C)cc4o3)CC2)cc1`, the survival was inactive: 89%. In the case of `O=C(CS(=O)(=O)c1cccc2nsnc12)N1CCN(c2cccc(C(F)(F)F)c2)CC1`, the survival was inactive: 67%. In the case of `O=C(Cn1cc(S(=O)(=O)c2ccccc2)c(=O)c2cc3c(cc21)OCO3)Nc1ccc(Cl)cc1`, the survival was inactive: 46%. `COc1ccc(Br)cc1CNC(=O)CCSCc1ccc(C)cc1` was tested, and the survival was inactive: 81%. With `CCCCNc1c2c(nc3ccccc13)CC(C)(C)CC2O` (stereo not given) the survival was inactive: 101%. With `CSc1ccc(CCNC(=O)c2ccc(-c3nc(COc4ccc(C)cc4)c(C)o3)cc2)cc1` the survival was inactive: 82%. `CCOC(=O)CSc1nc2ccccc2c(=O)n1-c1cccc(C)c1` was tested, and the survival was active: 31%. In the case of `O=C1c2[nH]nc(-c3ccccc3O)c2C(c2cccc(O)c2)N1Cc1ccncc1` (stereo not given), the survival was inactive: 103%. In the case of `O=C(Cn1cc(C(=O)c2ccncc2)c(=O)c2cc(F)ccc21)Nc1ccc(Cl)cc1`, the survival was inactive: 91%. With `CC(CN1CCCC1)OC(=O)c1ccc(F)cc1` (stereo not given) the survival was inactive: 85%. For `COc1cccc(-n2cc(C(=O)OCc3ccc(F)c(F)c3)c3ccccc3c2=O)c1`, the survival was inactive: 72%. In the case of `Cc1ccc2c(c1)N(S(=O)(=O)c1cc(-c3onc(C)c3C)ccc1C)CCO2`, the survival was inactive: 90%.
